# Laboratory results: PubChem BioAssay AID651661 (Broad Institute, 2012)
# Among all 350,000 compounds or so, about 2,300 (0.66%) were called active. This list was built around the results that the source calls inconclusive (neither active nor inactive); the mix of calls is not that of the screen.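 How the source made its calls: active means mean inhibition of at least 50% after viability correction, with every replicate also passing that limit; inconclusive means mean reaches 50% but only one of two replicates passes; inactive means the rest.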 Some structures have more than one record in an assay (separate samples or runs), and their calls can disagree.
# Experiment: blockers of EWS/Fli transcriptional output – A673 cells, NR0B1 luciferase, luminescence, MLPCN library, primary screen (AID 651661);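 further: firefly luciferase signal divided by Alamar Blue viability fluorescence both relative to DMSO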
# Settings: A673 NR0B1-luciferase reporter, viability-normalised; at 12.6 µM; active compounds read high
row,Structure (SMILES),inhibition
1,CSc1ccccc1COC(=O)Nc1ccccc1C,inactive: -22.7%
2,C[C@H](CO)N1C[C@H](C)[C@H](CN(C)C(=O)NC2CCCCC2)OCCCC[C@H](C)Oc2ccc(NC(=O)C3CCCCC3)cc2C1=O,inactive: 3.73%
3,COc1ccc(-c2ccc(C3[C@H]4CNC[C@@H]3N4C(=O)Nc3cccc(OC)c3)cc2)cc1 (stereo partly specified),active: 58.9%
4,C[C@H](CO)N1C[C@H](C)[C@H](CN(C)Cc2ccc(Oc3ccccc3)cc2)Oc2ccc(NC(=O)Nc3ccc4c(c3)OCO4)cc2CC1=O,inactive: 20.1%
5,O=C(C[C@H]1C[C@H]2c3cc(NC(=O)Cc4ccncc4)ccc3O[C@H]2[C@H](CO)O1)NCc1ccccn1,inactive: 2.97%
6,CCCNC(=O)[C@@H]1[C@@H](CO)[C@@H]2Cn3c(ccc(-c4ccccc4)c3=O)[C@H]1N2C(=O)CC,active: 54.9%
7,O=C(Nc1cccc(NC(=O)c2ccc([N+](=O)[O-])o2)c1)c1ccco1,inactive: 28.8%
8,COc1ccc(CCCNC(=O)C2Cc3c(-c4cccc(C(C)=O)c4)ccnc3O2)cc1 (stereo unspecified),inconclusive: 51.6%
9,Cc1ccc(-c2cc3c(nn2)-c2ccccc2C3=O)cc1,active: 83.6%
10,N#C[C@@H]1[C@H](c2ccc(C#Cc3cccc(F)c3)cc2)[C@@H](CO)N1C(=O)C1CC1,inconclusive: 51.7%
11,O=C(Nc1cccc(F)c1)N1CCCCN2[C@@H](CO)[C@@H](c3ccc(C#CC4CC4)cc3)[C@@H]2C1,inconclusive: 52%
12,COc1ccc(CN2C(=O)C(C)Nc3ncnc(N4CCc5ccccc5C4)c32)cc1 (stereo unspecified),inconclusive: 51.3%
13,COc1cc(C2c3cc4c(cc3CC3COC(=O)N32)OCO4)cc(OC)c1OC (stereo unspecified),inconclusive: 50.5%
14,Cc1ccc2nc(-c3ccccc3)nn2c1,active: 71.8%
15,CN(C)CCCn1c2c3ccccc3ccc2c2oc(=O)c3ccccc3c21,inconclusive: 51.9%
16,N#Cc1c(-c2ccc(Cl)cc2)c(-c2ccc(Cl)cc2)nn(CCOC(=O)CCC(=O)O)c1=O,inconclusive: 51%
17,CCN1CCN(Cc2ccc(NC(=O)c3cc(NC(=O)c4cc(-c5ccc(OC)cc5)n[nH]4)cc(OC)c3)cc2C(F)(F)F)CC1,active: 51.4%
18,Cc1ccc(-c2ccc3c(c2)O[C@@H](CN(C)Cc2cccnc2)[C@H](C)CN([C@H](C)CO)S3(=O)=O)cc1,inconclusive: 52.4%
19,Cc1ccc(S(=O)(=O)N(C)C[C@@H]2Oc3ccc(NC(=O)Nc4ccc(C(F)(F)F)cc4)cc3CC(=O)N([C@H](C)CO)C[C@@H]2C)cc1,inconclusive: 50.3%
20,C[C@H](CO)N1C[C@H](C)[C@@H](CN(C)C)Oc2cc(C#CCC3CCCC3)ccc2S1(=O)=O,inconclusive: 51.6%
21,O=C(c1ccc2c(c1)OCO2)N1C[C@@H]2N[C@H](C1)C2c1ccc(-c2cccnc2)cc1 (stereo partly specified),active: 64.2%
22,O=C(O)c1ccc(NC2=C(Cl)C(=O)c3ccccc3C2=O)cc1,inconclusive: 50.9%
23,CCOC(=O)c1nc(S(C)(=O)=O)ncc1Cl,inconclusive: 51.7%

row,Structure (SMILES),inhibition
1,O=C(O)CCCN1C(=O)/C(=C\C(Cl)=C\c2ccccc2)SC1=S,inconclusive: 60.2%
2,CC(=O)Nc1ccc(NC(=O)c2nc(S(=O)(=O)Cc3cccc(C)c3)ncc2Cl)cc1,active: 61.1%
3,C[C@@H]1CN([C@@H](C)CO)C(=O)c2cc(NC(=O)Nc3cccc4ccccc34)ccc2O[C@@H](C)CCCCO[C@H]1CN(C)Cc1ccccc1,inconclusive: 50.2%
4,O=C(O)c1ccc(N/N=C/c2ccc(C(F)(F)F)cc2)cc1,inconclusive: 56%
5,Cc1cc(C(=O)Nc2ccc3c(c2)C(=O)N(C)[C@@H]2CC[C@H](CC(=O)NCc4ccc(-c5ccccc5)cc4)O[C@@H]2CO3)no1,inconclusive: 53.1%
6,NC(Cc1ccc(C(F)(F)F)cc1)c1csc(NC(=O)NCCc2ccccc2)n1 (stereo unspecified),inconclusive: 54.6%
7,Cc1ccc(S(=O)(=O)Nc2ccc3c(c2)CC(=O)N([C@@H](C)CO)C[C@H](C)[C@H](CN(C)Cc2ccc(C(=O)Nc4ccccc4N)cc2)O3)cc1,inconclusive: 50.8%
8,CCOc1ccc(C(=O)Nc2cc(C)ccn2)cc1,inconclusive: 51.4%
9,C[C@H](CO)N1C[C@H](C)[C@H](CN(C)C(=O)NC2CCCCC2)Oc2ncc(C#Cc3ccccc3)cc2C1=O,inconclusive: 52.1%
10,CCCC(=O)N1CCC2(CC1)CN(Cc1cccnc1)[C@@H](CO)c1[nH]c3cc(OC)ccc3c12,inactive: -15.5%
11,Cc1cccc(Nc2nc(N)nc(CCl)n2)c1C,inconclusive: 65.3%
12,COc1cccc(C2NC(=S)NC(C)=C2C(=O)c2ccccc2)c1OC (stereo unspecified),inconclusive: 54.7%
13,COc1cccc(CNC(=O)C[C@@H]2CC[C@@H]3[C@@H](COc4ccc(NS(=O)(=O)c5ccccc5F)cc4C(=O)N3C)O2)c1,inactive: -19.4%
14,COC(=O)C1=C(C)N(Cc2ccc(C(F)(F)F)cc2)C(=NCc2ccc(C(F)(F)F)cc2)NC1c1ccc(F)cc1 (stereo unspecified),inconclusive: 50.9%
15,COc1ccc(NS(=O)(=O)c2cc(NC(=O)c3ccc(=O)[nH]c3)ccc2N2CCCC2)cc1,inconclusive: 51.8%
16,O=C(/C=C/c1ccco1)NC(=S)Nc1nc(-c2ccc3ccccc3c2)cs1,inconclusive: 51.2%
17,O=C(Cn1c(=O)oc2ccccc21)Nc1cccc(Cl)c1,inactive: 12.3%
18,COc1cc2c3nnc(-c4ccc(F)cc4)c-3cn(Cc3ccc(C)cc3)c2cc1OC,inconclusive: 50.6%
19,CCOC(=O)c1c(NC(=O)c2ccccc2N(C)S(=O)(=O)c2ccccc2)sc2c1CCCC2,inconclusive: 51.4%
20,O=C(NCCc1ccccc1)c1ccc2c(c1)OCCO2,active: 90.2%
21,NC1=NC[C@H](CC2CCCCC2)N1CCc1cc(C(F)(F)F)cc(C(F)(F)F)c1,inconclusive: 50.5%
22,CNC[C@@H]1OCCCC[C@@H](C)Oc2ccc(NC(=O)Nc3c(C)noc3C)cc2C(=O)N([C@H](C)CO)C[C@@H]1C,inactive: -1.14%
23,COc1cc(-c2noc(C)c2C#Cc2ccc(N)cc2)cc(OC)c1OC,inconclusive: 51.1%
